# The whole screen tested about 420,000 compounds, of which about 64,000 (15%) were called active. This list was built around the results that the source calls inconclusive (neither active nor inactive); the mix of calls is not that of the screen. Calls follow the shape of the dose curve; as a rule, active = well fitted inhibition curve with a large enough effect; inconclusive = small, poorly fitted or top-dose-only effect; inactive = flat fitted curve, though single readings scatter. Potencies of inconclusive entries are left out as doubtful fits.
# Assay: qHTS for Inhibitors of human tyrosyl-DNA phosphodiesterase 1 (TDP1): qHTS in cells in absence of CPT; also: nearly all actives have a fitted effect of over 55% in size
# Details: DT40 Tdp1-/- hTDP1 cells, no CPT, ATP luminescence, 48 h; activity change, negative = growth inhibition: at 46.2 µM (top of the series) unless noted
# In short: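 Stably hTDP1-transfected Tdp1-null chicken DT40 cells were treated with library compounds minus camptothecin and grown for at least 48 hr at 37 °C, after which cellular ATP was quantified by luminescence.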
# % is scaled to controls: 0 for no effect and ±100 for the full control effect; potency is read from the fitted curve at half-maximal effect; tags tell the direction and shape of the fitted curve.
Compound,Potency,"activity change, negative = growth inhibition"
O=C(CN1C2CCCC1CC(NC(=O)c1ccccc1)C2)Nc1ccccc1 (stereo not given),"inconclusive [inhibitor, single point]",
CCCCN1C(=O)C(CC(=O)NC(c2ccccc2)c2ccccc2)CC(C(=O)N2CCOCC2)=C1C (stereo not given),"inconclusive [inhibitor, single point]",
Cc1cccc(NC(=O)CN2C(=O)/C(=C3\SC(=S)N(CC4CCCO4)C3=O)c3ccccc32)c1 (stereo not given),"inconclusive [inhibitor, single point]",
CC1CCN(S(=O)(=O)c2ccc(Cl)cc2Br)CC1,,inactive: -26.2%
CSCCC(NS(=O)(=O)c1ccc(Cl)cc1)C(=O)OCC(=O)c1c(C)[nH]c2ccccc12 (stereo not given),active: 14.6 µM,
CC(=O)N[C@@H](CC(C)C)C(=O)O,,inactive: -1.14%
Cc1ccccc1C(=O)Nc1nnc(S(=O)(=O)N(C)c2ccc(Cl)cc2)s1,"inconclusive [inhibitor, single point]",
Cc1ccccc1Cn1c(=O)n(CCc2ccccc2)c(=O)c2sc3ccccc3c21,,inactive: -3.88%
Cc1cc(C)c2c(CC(=O)Nc3nccs3)coc2c1,"inconclusive [inhibitor, single point]",
CC(C)c1ccc(NC(=O)COC(=O)/C=C/c2cccc(Br)c2)cc1,"inconclusive [inhibitor, single point]",
O=C(NCCCO)/C(=C\c1cn(-c2ccccc2)nc1-c1cccnc1)NC(=O)c1ccccc1,,inactive: -27.8%
O=c1c2cc3ccccc3nc2ncn1CCc1ccc(Cl)cc1,"inconclusive [inhibitor, single point]",
CC(C)(C)c1ccc(C(=O)N2CCC(C(=O)N3CCCCC3)CC2)cc1,,inactive: -24.3%
CN(C)c1ccc(C(C(=O)NCC2CCCO2)N(C(=O)c2snc(C(N)=O)c2N)c2ccccc2)cc1 (stereo not given),"inconclusive [inhibitor, partial curve, poor fit]",
O=C(CSc1nnc(NC(=O)c2ccco2)s1)Nc1ccccc1,"inconclusive [inhibitor, partial curve, poor fit]",
COc1ccc(CCNC(=O)c2ccc3c(c2)NC(=O)C(N2CCOCC2)S3)cc1OC (stereo not given),"inconclusive [inhibitor, single point]",
CC(C)c1ccc(Nc2nc(N3CCOCC3)nc(N3CCOCC3)n2)cc1,active: 18.4 µM,
CC(C)(C)OC(=O)C[C@@H]1C/C=C\C[C@H](CC(=O)N[C@@H](CO)Cc2ccccc2)C(=O)N[C@H](C(C)(C)C)COC1=O,active: 18.4 µM,
NC1=NC2=C(CCCC2)C2(CCCCC2)S1,"inconclusive [inhibitor, single point]",
COc1cccc(Nc2ncnc3sc(C)cc23)c1,"inconclusive [inhibitor, single point]",
Cc1onc(-c2ccccc2Cl)c1C(=O)Nc1cccc(-c2nc3ncccn3c2C)c1,"inconclusive [inhibitor, partial curve]",
COc1ccc(C)c2sc(N(CCCN(C)C)C(=O)c3ccc(S(=O)(=O)N4CCc5ccccc5C4)cc3)nc12,active: 2.31 µM,
O=C(NCc1ccco1)c1nc2c(nnn2Cc2ccccc2Cl)c(=O)[nH]1,"inconclusive [inhibitor, single point]",
Clc1ccc(CCNc2nc3ccccc3s2)cc1,"inconclusive [inhibitor, partial curve]",

Compound,Potency,"activity change, negative = growth inhibition"
O=C(CN1C(=O)NC(Cc2ccccc2)(Cc2ccccc2)C1=O)NCC1CCCCC1,"inconclusive [inhibitor, single point]",
Cn1c(=O)c2c(ncn2CCOc2cccc(Br)c2)n(C)c1=O,active: 9.2 µM,
O=C(OC1C2CCC1C1CN(CCc3ccccc3)CC12)c1ccccc1 (stereo not given),active: 16.4 µM,
CC1(C)N([O-])C2=C(c3ccccc3C2=O)[N+](=O)C1(C)C,"inconclusive [inhibitor, single point]",
O=C(Nc1cccc2ccccc12)c1ccccc1NS(=O)(=O)c1cccc2cccnc12,,inactive: -23.2%
CCN(CC(=O)Nc1ccc(OC)cc1)C(=O)CN1C(=O)NC(C)(c2ccc3ccccc3c2)C1=O (stereo not given),"inconclusive [inhibitor, partial curve]",
COc1ccc(-c2ccc3[nH]c4c(c3c2)CCN2C[C@@H]([C@H](C)OC(=O)Nc3cc(Cl)cc(Cl)c3)[C@@H](N(C)C(=O)Nc3cc(Cl)cc(Cl)c3)C[C@@H]42)cc1,"inconclusive [inhibitor, single point]",
COc1ccc(NC(C)=O)cc1S(=O)(=O)N1CCc2ccccc21,,inactive: 8.07%
Cn1cc(-c2ccccc2)cc(C#N)c1=O,,inactive: 3.04%
Cc1cc(Br)ccc1NC(=O)C1CCN(S(=O)(=O)c2cccc3nsnc23)CC1,"inconclusive [inhibitor, single point]",
C[C@H]1CN([C@@H](C)CO)C(=O)CCCn2nncc2CO[C@H]1CN(C)S(=O)(=O)c1ccccc1,,inactive: -23.4%
CS(=O)(=O)Nc1ccc(OCc2ccccc2)cc1,,inactive: -14.6%
COCCCNC(=O)C(=O)Nc1c2c(nn1-c1cccc(Cl)c1)CSC2,"inconclusive [inhibitor, single point]",
NC(=NC(=O)c1ccc(Cl)cc1)N1N=CCC1c1ccccc1 (stereo not given),"inconclusive [inhibitor, single point]",
CCc1ccc(O)c(-c2cc(C(=O)Nc3cccnc3)[nH]n2)c1,"inconclusive [inhibitor, single point]",
Fc1ccc(C2=NOC(c3nnc(-c4ccccc4)o3)C2)cc1 (stereo not given),"inconclusive [inhibitor, partial curve]",
O=C(c1ccccc1)c1ccccc1C(=O)N1CCN(C(=O)c2ccccc2)CC1,"inconclusive [inhibitor, single point]",
CCOc1ccccc1NC(=O)C(Sc1nnc2ccccn12)c1ccccc1 (stereo not given),"inconclusive [inhibitor, partial curve]",
CCCc1cc(C(=O)NNC(=S)NCc2ccccc2)cs1,"inconclusive [inhibitor, partial curve]",
O=C(/C=C/c1ccccc1F)c1cccc([N+](=O)[O-])c1,active: 20.6 µM,
CCOc1cc(OCC)cc(C(=O)NC(=S)Nc2cccc(C(F)(F)F)c2)c1,,inactive: -0.135%
COC(=O)c1c(-c2cccs2)csc1NC(=O)COc1c(C)ccc(C)c1C,"inconclusive [inhibitor, single point]",
O=[N+]([O-])c1ccc(-c2ccc(/C=N/c3c(-c4ccco4)nc4ccccn34)o2)cc1,active: 7.31 µM,
CC(C1CC1)N(Cc1ccccc1)C(=O)NC(=O)c1ccc(F)cc1 (stereo not given),"inconclusive [inhibitor, single point]",

Compound,Potency,"activity change, negative = growth inhibition"
CCC(C)(C)n1nnnc1C(c1cc2cc(C)ccc2[nH]c1=O)N1CCCc2ccccc21 (stereo not given),"inconclusive [inhibitor, single point]",
Cc1ccccc1CSCc1ccc(C(=O)NCCCN2CCOCC2)o1,,inactive: 2.32%
COC(=O)C(C)Sc1nc2c(c(-c3ccc(OC)cc3)c1C#N)-c1ccccc1C2=O (stereo not given),"inconclusive [inhibitor, single point]",
COc1cccc(/C=N/n2c(=S)n(C)c3cc(C)c(C)cc32)c1OC,"inconclusive [inhibitor, single point]",
CCOC(=O)C(C)(C)N(Cc1ccc(C)cc1)S(=O)(=O)c1ccc(Cl)c([N+](=O)[O-])c1,active: 13 µM,
O=C(Cc1ccc(Br)cc1)N1CCN(c2ccccc2)CC1,"inconclusive [inhibitor, single point]",
Oc1ccc(N=Nc2c(O)ccc3ccccc23)cc1,"inconclusive [inhibitor, single point]",
NS(=O)(=O)c1cccc(NS(=O)(=O)c2cccc(C(F)(F)F)c2)c1,,inactive: -1.57%
CNC(=O)Cn1cc(S(=O)(=O)Cc2ccccc2F)c2ccccc21,"inconclusive [inhibitor, single point]",
O=C(Nc1ccc(Oc2cccc(C(F)(F)F)c2)nc1)c1ccccc1,active: 13 µM,
O=C(C1CCC1)N1CCc2cc(S(=O)(=O)Nc3ccc4c(c3)OCCO4)ccc21,active: 7.31 µM,
O=C(/C=C/c1cc[n+](CC(=O)c2ccc3cccc4c3c2CC4)cc1)c1ccc2cccc3c2c1CC3,"inconclusive [inhibitor, single point]",
COc1cc(OC)c2c(c1)C(=O)OC2c1cc(OC)c(OC)cc1C (stereo not given),active: 11.2 µM,
O=C(O)c1cccc(S(=O)(=O)N2Cc3ccccc3C2)c1,,inactive: -22.1%
Cc1ccccc1NC(=O)Nc1ccccc1Br,"inconclusive [inhibitor, partial curve]",
CCOC(=O)C(C)Oc1ccc2c(C)cc(=O)oc2c1C(C)=O (stereo not given),,inactive: -2.69%
CCOC(=O)c1c(NC(=O)Cn2nc(C(F)(F)F)cc2C)sc2c1CCC2,"inconclusive [inhibitor, single point]",
Cc1nn(C(=O)c2ccccc2F)c(C)c1S(=O)(=O)N1CCCCCC1,,inactive: -15.1%
O=C(OCc1nnc(-c2ccc(Cl)cc2)o1)c1ccncc1,,inactive: 2.8%
CON(C)C(=O)CC(CNC(=O)OC(C)(C)C)c1ccc(Cl)cc1 (stereo not given),active: 14.6 µM,
O=C(c1cccs1)N1C[C@@H](n2cc(C3CC3)nn2)[C@H](O)C[C@@H]1c1ccc(Cl)cc1,"inconclusive [inhibitor, partial curve]",
COc1ccc(-c2oc3ncn4nc(COc5c(C)cccc5C)nc4c3c2-c2ccc(OC)cc2)cc1,"inconclusive [inhibitor, full curve, poor fit]",

# Reference: PubChem BioAssay AID686978 (National Center for Advancing Translational Sciences (NCATS), 2013)
